Measurements from the supplement of paper PMC3334620.
The full ranking holds about 33,000 sequences; the median of “E-score (-0.5 to 0.5)” is about -0.035, and the highest 2% start at about 0.34. The list shows a part of the results.

Molecular target: T1, Mot3 (UniProt P54785)
T1 sequence: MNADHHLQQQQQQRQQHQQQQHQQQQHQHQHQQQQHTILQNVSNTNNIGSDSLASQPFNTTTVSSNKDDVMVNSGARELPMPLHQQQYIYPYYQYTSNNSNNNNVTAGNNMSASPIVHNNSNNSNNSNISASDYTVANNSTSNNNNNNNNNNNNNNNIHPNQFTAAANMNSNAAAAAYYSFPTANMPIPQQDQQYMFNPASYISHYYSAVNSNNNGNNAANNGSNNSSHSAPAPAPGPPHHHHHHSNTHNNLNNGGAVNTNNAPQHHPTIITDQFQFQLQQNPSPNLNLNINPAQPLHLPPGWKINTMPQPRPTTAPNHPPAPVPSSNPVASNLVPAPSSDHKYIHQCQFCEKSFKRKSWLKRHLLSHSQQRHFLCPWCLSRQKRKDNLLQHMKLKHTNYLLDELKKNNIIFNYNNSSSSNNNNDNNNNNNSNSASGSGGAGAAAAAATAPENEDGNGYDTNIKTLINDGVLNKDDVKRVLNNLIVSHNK
Assay: PBM E-score (8-mer binding enrichment) (E-score (-0.5 to 0.5)); higher = stronger / more preferred TF binding; most listed sequences are background and not binding sites
Details: protein concentration: 200 nM; construct: GST-full length
Summary of the method: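 Using PURExpress in vitro transcription/translation, GST-tagged yeast transcription factors were made in full-length or DNA-binding-domain form. These were applied at about 100-200 nM to double-stranded universal all-10-mer Agilent arrays, and bound protein was detected with fluorescent anti-GST. Scans were normalised with masliner before the Universal PBM Analysis Suite assigned E-scores to ungapped eight-base words pooled with their reverse complements.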

| Sequence | PBM E-score |
| --- | --- |
| GATAAAGC | -0.0526 |
| AAGCATGT | 0.285 |
| CAGCGGTC | -0.18 |
| ACTTCCGG | 0.0138 |
| ACCTGAAA | 0.188 |
| AAGGGAGC | -0.234 |
| AGTACATG | 0.289 |
| GTAGTCGA | 0.0317 |
| ATTACTGG | 0.0729 |
| ACTATGTG | 0.0709 |
| ACCTGACA | 0.105 |
| GGGTGTAC | -0.0148 |
| CTCAGCGA | -0.109 |
| CCTCGACC | -0.126 |
| AGCAAGCC | -0.225 |
| CCGGATGA | -0.198 |
| AAGCGTGA | 0.00227 |
| ATGAGGTC | -0.181 |
| AGTGGTCA | -0.356 |
| CAAACGAA | 0.0627 |
| ACTCAAAG | 0.077 |
| CCACCCGG | -0.108 |
| AACAAACT | 0.0983 |
| AGACAAAC | 0.0316 |
| CGTCGAAC | -0.00595 |

| Sequence | PBM E-score |
| --- | --- |
| AATAGGCC | -0.0184 |
| AACAGGTA | 0.269 |
| CTAGTGGC | -0.282 |
| ACATGCAG | 0.232 |
| CTACCGAG | -0.131 |
| CTTTAATA | 0.131 |
| CGCGGCAG | -0.035 |
| GACAAAGC | -0.0144 |
| AATGAGGG | -0.146 |
| CTTGCACA | 0.0256 |
| CCCACGTC | -0.187 |
| GATCGAGC | -0.2 |
| GACCCCTA | -0.106 |
| ACTGTTTC | -0.107 |
| AGCCCGAC | -0.185 |
| ACCTATCT | 0.152 |
| AAATTTGG | 0.135 |
| ATGAGTCC | -0.159 |
| ATAAGCGC | -0.0498 |
| CAGTTCCG | -0.282 |
| CTGCACTC | -0.271 |
| AGACCCCG | -0.188 |
| AGAGCCAT | -0.142 |
| GCCAGTCC | -0.315 |
| CGTCTAAG | -0.145 |

| Sequence | PBM E-score |
| --- | --- |
| AACCTATA | 0.277 |
| AGCTGGTC | -0.126 |
| CTTGTCGA | 0.0845 |
| CCAAGACG | -0.236 |
| ACTGTCCA | 0.122 |
| ACGCGTAT | 0.286 |
| GGAGTAGA | -0.144 |
| TATCGATA | -0.0819 |
| ACCTGGAT | -0.0359 |
| AGCCTAAG | 0.0457 |
| CACACAGA | 0.129 |
| GTTGTCTA | 0.19 |
| ATCGACAG | -0.125 |
| CTGAGGCA | 0.257 |
| AACGATAT | 0.175 |
| CGTAAAAG | 0.183 |
| CGATGCGC | -0.0409 |
| CAACTCAA | 0.11 |
| ATACTATA | -0.0318 |
| AAAATCCG | 0.00192 |
| GCGTCTGA | -0.0243 |
| AAAATCGA | -0.119 |
| GCGTCAAC | 0.109 |
| CACTAAGC | -0.25 |
| AGCTTGAT | -0.114 |

| Sequence | PBM E-score |
| --- | --- |
| ATAGCAAG | 0.0209 |
| AGTGCCGG | 0.0259 |
| AACCGTGT | 0.294 |
| ACGAGACG | -0.00429 |
| AAACCCAT | 0.109 |
| GTTTGCCA | -0.0311 |
| ATGATGGG | -0.139 |
| CGGGGACA | -0.141 |
| CACGCAAG | 0.116 |
| ACTGCACC | -0.0741 |
| GTTAGTCA | 0.044 |
| CGATCTTA | -0.0275 |
| ACGGTCCT | -0.195 |
| CGAAGAGC | -0.106 |
| TTACGGAA | 0.0689 |
| TAGTCAAA | 0.015 |
| CATTGAGC | -0.194 |
| CCGCGTAA | 0.336 |
| ATGCGCTA | -0.0896 |
| CTTAAGAC | -0.0312 |
| AATTATAT | 0.198 |
| AAAGTGGG | -0.0287 |
| CAGCTAGC | -0.206 |
| AGAACAAA | 0.175 |
| CGCGCGAG | -0.219 |

| Sequence | PBM E-score |
| --- | --- |
| AGTCCTGA | -0.179 |
| GCTCTATA | -0.0578 |
| CGGTTTAC | 0.134 |
| TTTAGAAA | 0.118 |
| CGATCTCC | -0.257 |
| CTGACTGA | -0.0202 |
| AATGGACT | -0.116 |
| CCTTCCCC | -0.107 |
| CGTAACCA | 0.0907 |
| CGGAACCG | -0.249 |
| AAACGTTA | 0.152 |
| CCAAGGGC | -0.163 |
| ACACCAGA | 0.101 |
| TCAGCTAA | -0.198 |
| CTAATCTC | -0.0443 |
| GACCTGAA | -0.107 |
| CACGAGAG | -0.0248 |
| AATGGGAT | -0.256 |
| GATACATA | 0.252 |
| CGCATGTC | 0.146 |
| TGGGTAAA | -0.0942 |
| CCAAACGC | -0.125 |
| GACTCCGA | -0.00932 |
| GAGAAATC | -0.077 |
| ACGTCTCC | 0.0151 |

| Sequence | PBM E-score |
| --- | --- |
| CGGCGACA | -0.259 |
| ACGTTGTG | 0.137 |
| AATGGGAG | -0.0219 |
| AAGCCCGT | -0.0844 |
| CTTCAGCA | -0.076 |
| GTCTTGAA | -0.133 |
| AAGACTAG | -0.0988 |
| ATCTTTGA | -0.086 |
| GCCGACAA | -0.112 |
| ACCCGATG | -0.0404 |
| GCACAGCC | -0.251 |
| TAAAAACA | 0.257 |
| AATCGGTG | -0.0687 |
| AATAGCAG | -0.039 |
| AGGACACC | 0.0146 |
| ATTCTATC | 0.0201 |
| GTTCCAAA | 0.0351 |
| CTAGGGTA | -0.133 |
| ACCTCGAC | -0.0664 |
| GATCATGC | -0.358 |
| AATAAACA | 0.26 |
| AGGTGGGA | -0.105 |
| ACCGCTGA | -0.0199 |
| GGCATATA | 0.0734 |
| AGTTGCCC | 0.144 |

| Sequence | PBM E-score |
| --- | --- |
| ACATTGAT | 0.117 |
| GGGAAAAA | -0.123 |
| AGCCCACC | -0.268 |
| ACAGCGCG | 0.129 |
| ATCTGTGC | 0.174 |
| CGAGGAGA | -0.317 |
| CGCGCCTC | -0.152 |
| AGTAATGA | 0.123 |
| GCCCGACC | -0.361 |
| AGTAGATA | 0.0664 |
| AAGTCAGT | -0.0821 |
| AGGAAGTC | -0.25 |
| AAGGCAAG | 0.485 |
| GCTGGAAC | -0.289 |
| GCACGTGC | 0.252 |
| ACACCAAA | 0.132 |
| AGGTAACC | 0.321 |
| CGGATTCC | -0.181 |
| CACGCCAC | 0.0438 |
| AAGCACGA | 0.00749 |
| CTGATTCC | -0.0534 |
| GAGGGCGA | -0.383 |
